The structures appear in SMILES notation. The campaign covered roughly 110,000 compounds. About 230 (0.21%) showed an effect of 50% or more. The list shows a part of the results.
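Also: 30 min substrate incubation versus DMSO and 10 µM JCP410 controls.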

For the experiment, the target named is DPAP1 (Plasmodium falciparum, UniProt Q8IIJ9). In words: primary screen, percent inhibition; read by cleavage of a fluorogenic dipeptide substrate; higher = more effect of the substance. Also noted: species or system P. falciparum D10 trophozoite lysates; single well.
Sequence of DPAP1 (Q8IIJ9 whole entry, looked up): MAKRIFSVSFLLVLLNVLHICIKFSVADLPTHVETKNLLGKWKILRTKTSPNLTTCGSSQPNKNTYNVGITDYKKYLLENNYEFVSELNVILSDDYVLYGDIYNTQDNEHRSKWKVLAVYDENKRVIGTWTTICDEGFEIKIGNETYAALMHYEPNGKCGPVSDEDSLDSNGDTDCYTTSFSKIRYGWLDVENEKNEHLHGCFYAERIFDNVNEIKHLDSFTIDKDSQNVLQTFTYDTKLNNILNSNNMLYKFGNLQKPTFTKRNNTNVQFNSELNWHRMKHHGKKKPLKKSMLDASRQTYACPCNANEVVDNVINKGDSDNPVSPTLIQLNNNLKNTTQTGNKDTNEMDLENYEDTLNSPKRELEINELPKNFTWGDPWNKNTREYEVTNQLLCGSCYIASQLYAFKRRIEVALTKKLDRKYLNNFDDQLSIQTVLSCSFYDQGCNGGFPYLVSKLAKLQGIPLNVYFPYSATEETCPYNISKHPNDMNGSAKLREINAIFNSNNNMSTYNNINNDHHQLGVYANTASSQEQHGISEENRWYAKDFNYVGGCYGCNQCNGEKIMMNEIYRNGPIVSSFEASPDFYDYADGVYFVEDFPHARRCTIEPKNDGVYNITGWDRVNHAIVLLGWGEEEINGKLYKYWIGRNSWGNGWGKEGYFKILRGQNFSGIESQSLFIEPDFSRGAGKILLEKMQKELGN
With `Cc1cc(Oc2ccc(-c3ccccc3)cc2)nc(-c2ccccc2O)n1`, the “% Inhibition @ 10 uM” value is listed as -1.07%.

On to `Cc1cc(C(=O)NCCc2ccccc2)c2c(C)nn(-c3ccccc3)c2n1`, for which the “% Inhibition @ 10 uM” value is -6.46%. Under `c1ccc2c(c1)OCC(CSc1nnc3c(n1)[nH]c1ccccc13)O2` (stereo not shown) stands 6.51%. The same measure for `COc1cccc(N2C(=O)c3ccc(-c4nc5ccccc5o4)cc3C2=O)c1`: 4.49%. Under `O=C(Nc1ccc(Cl)c(Cl)c1)C1CC(=O)N(c2ccc(F)cc2)C1` (stereo not shown) stands 4.07%; under `CC1(C)CC(=O)C(/C=N/c2cccnc2Cl)=C(O)C1`, -2.83%. For the compound `CCCCN(C)CCCn1cnc2c3cc(Cl)ccc3nc-2c1O`, the “% Inhibition @ 10 uM” value is on record as -3.52%. Regarding `CCn1cc(CCCC(=O)NCc2cccs2)c2ccccc21`, the “% Inhibition @ 10 uM” value stood at 4.51%. As for `Cn1c(S)nc2c1c(=O)n(Cc1ccccc1Cl)c(=O)n2C`, the “% Inhibition @ 10 uM” value turned out to be 6.12%. Under `Cn1cc(Br)c(C(=O)Nc2nc3ccccc3n2Cc2ccccc2)n1` stands 2.21%.

For `CCCC(NC(N)=O)c1ccccc1` (stereo not shown), the “% Inhibition @ 10 uM” value is given as -3.32%. `Cc1ccc(OCc2nc(C#N)c(NCc3ccccc3Cl)o2)cc1`: the “% Inhibition @ 10 uM” value is reported as -0.958%.

For the compound `Fc1ccccc1Cc1nc(-c2ccc(C(F)(F)F)cc2)no1`, the “% Inhibition @ 10 uM” value amounted to 6.31%. For `Cc1ccc(S(=O)(=O)CC(=O)N2CCCCCC2)cc1`, the “% Inhibition @ 10 uM” value was determined as 2.13%. The same measure for `O=C(c1ccco1)N1CCN(C(=O)C2CCN(S(=O)(=O)c3cccc4nsnc34)CC2)CC1`: 3.53%. The same measure for `CC1=NN(c2ccccc2)C(=O)/C1=C\c1ccccc1[N+](=O)[O-]`: 0.247%; for `Cc1oc2cc3c(C#N)c(C)oc3cc2c1C#N`: -4.61%; for `Cc1ccc(/C=C(\NC(=O)c2ccccc2)C(=O)NCCc2ccccc2F)o1`: -0.968%. In the case of `CCc1ccc(NC2=NC(=O)C(CC(=O)Nc3ccccc3)S2)cc1` (stereo not shown), the “% Inhibition @ 10 uM” value came to 21.5%.

On to `CC(C)(CNC(=O)c1ccc2c(c1)OCO2)CNC(=O)c1ccc2c(c1)OCO2`, for which the “% Inhibition @ 10 uM” value was found to be 0.317%.

For `O=C(Cn1nc(-c2ccccc2)c2ccccc2c1=O)NCCO`, the “% Inhibition @ 10 uM” value is 1.39%. Under `COc1ccc2cc(C(=O)O)n(Cc3ccccc3)c2c1` stands -1.75%; under `Cc1oc2ncnc(N3CC(C)CC(C)C3)c2c1C(=O)O` (stereo not shown), -2.19%. The same measure for `CC(C)(C)C(/C=C\c1ccc(Cl)cc1Cl)n1nnnc1C(c1ccccc1)N1CCOCC1` (stereo not shown): -2.72%; for `C=CCOC(=O)C1=C(C)NC(=O)NC1c1ccc(Cl)cc1` (stereo not shown): 3.61%. Regarding `CCCC1(NC(=O)c2ccccc2)CCCC1`, the “% Inhibition @ 10 uM” value was -0.744%. Regarding `O=CNc1ncc(-c2nc3ccccc3[nH]2)s1`, the “% Inhibition @ 10 uM” value is -0.597%. On to `O=C(Nc1cccc2cccnc12)c1ccccc1`, for which the “% Inhibition @ 10 uM” value is reported as -4.02%. For `COc1ccc(NC(=O)c2c(-c3ccccc3Cl)noc2C)cc1`, the “% Inhibition @ 10 uM” value is given as 2.03%.

As to `COc1cc2c(cc1OC)C(c1cccnc1)N(C(C)=O)CC2` (stereo not shown), the “% Inhibition @ 10 uM” value is 4.51%. With `CCOc1cc(-c2nc(C)c(C(C)=O)n2O)ccc1OCC(=O)Nc1cccc(C)c1`, the “% Inhibition @ 10 uM” value is on record as -0.25%. As to `Cc1cc(/N=C/C2=C(O)c3sccc3N(Cc3ccc(F)cc3)S2(=O)=O)no1`, the “% Inhibition @ 10 uM” value amounted to 2.44%. The same measure for `Cc1ccc(NC2=NC(=O)C(CC(=O)Nc3c(C)cccc3C)S2)cc1` (stereo not shown): -11.8%; for `Cc1ccc(C)c(NC(=O)c2ccc(Cl)cc2Cl)c1`: 0.827%; for `Cc1ccc(CN2CCN(c3ccccc3)CC2)cc1`: 1.55%.

As for `CC(C)C(=O)N1CCN(c2ccc(F)cc2)CC1`, the “% Inhibition @ 10 uM” value is -1.54%.

Turning to `CCOC(=O)c1cc2c(=O)n3ccccc3nc2n(CCCOC)/c1=N\C(C)=O`, the “% Inhibition @ 10 uM” value is on record as -2.04%. Turning to `CCOC(=O)c1c(C)n(Cc2ccccc2)c2ccc(OCC(O)CNCc3ccccc3)cc12` (stereo not shown), the “% Inhibition @ 10 uM” value is on record as -4.93%.

As for `O=[N+]([O-])c1ccc(C2=NN=C(c3ccccc3)c3ccccc3N2)cc1`, the “% Inhibition @ 10 uM” value is recorded as -0.034%. Under `Cc1cccn2c(=O)c3cc(C(=O)O)n(C)c3nc12` stands -4.72%. Under `COc1cc2c(cc1OC)C(=O)NCC(C)(C)O2` stands 12.2%. For the compound `CN(C(=O)c1ccc(C(=O)c2ccccc2)cc1)c1ccccc1`, the “% Inhibition @ 10 uM” value is recorded as -3.04%. The same measure for `Cc1ccc(CNC(=O)CN2CCN(Cc3ccccc3C)C2=O)cc1`: -0.256%. Under `Cc1oc2c(C)c3oc(=O)cc(C)c3cc2c1-c1ccccc1` stands -2.92%; under `C=CCNc1nc(Cl)nc(NC2CCCCC2)n1`, 2.54%.

For `Brc1ccc(OCCCCN2CCCCC2)cc1`, the “% Inhibition @ 10 uM” value came out at 1.35%. With `COc1ccccc1Nc1nc(-c2sc(NC(C)=O)nc2C)cs1`, the “% Inhibition @ 10 uM” value is 13%. For `Cc1ccc(CNCCC2=CCCCC2)cc1`, the “% Inhibition @ 10 uM” value is given as -5.01%.

For the compound `CCc1ccc(OCC(=O)Nc2ccc(S(=O)(=O)N3CCc4ccccc43)cc2)cc1`, the “% Inhibition @ 10 uM” value was 3.53%. The same measure for `Fc1ccc(N2CCN(Cc3ccc(F)cc3F)CC2)cc1`: 1.55%.

Take `COc1ccc(CCNC(=O)Cn2nc(C)n3cccc3c2=O)cc1OC`: the “% Inhibition @ 10 uM” value is -6.99%. As for `O=C1CC(N2CCN(Cc3ccccc3)CC2)C(=O)N1c1ccc(F)cc1` (stereo not shown), the “% Inhibition @ 10 uM” value was found to be 1.02%. The same measure for `Cn1c(C(=O)N2CCC(C(=O)NCCCc3ccccc3)CC2)cc2sccc21`: 0.137%. Under `CCC(C(=O)NCc1cccc(OC)c1OC)n1ncn2c(cc3occc32)c1=O` (stereo not shown) stands -3.79%; under `Cc1cccc(Oc2nc3c(C)cccn3c(=O)c2/C=C(\C#N)C(=O)NCC2CCCO2)c1` (stereo not shown), -9.06%.

Take `CCN1CCN(CCCNC(=O)c2ccc3c(c2)c(C)c(C)n3Cc2ccc(Cl)cc2)CC1`: the “% Inhibition @ 10 uM” value is 5.72%. Regarding `COc1ccc(-n2c(SCc3ccccc3Cl)nc3nncc-3c2O)cc1`, the “% Inhibition @ 10 uM” value is reported as 1.42%. Under `COc1cc(SC)ccc1C(=O)NCCOc1ccc(F)cc1` stands 3.39%; under `Cc1ccc(NC(=O)c2ccc(Cl)cc2Cl)nc1`, 2.01%; under `COc1ccc(CNc2nc3nc(-c4ccccc4)cc(O)n3n2)cc1OC`, 2.62%. On to `CCOc1cc(C2CC(=O)NC3=C2C(=O)CC(c2cccs2)C3)cc(Br)c1O` (stereo not shown), for which the “% Inhibition @ 10 uM” value is listed as -1.62%. The same measure for `Cc1nn2cc(-c3ccc(C)c(C)c3)nc2s1`: 4%; for `Cc1ccc(NC(=O)C(C)Oc2ccccc2)c(C)c1` (stereo not shown): -0.872%. Regarding `COc1ccc2cc(Br)ccc2c1CC(=O)Nc1cccnc1`, the “% Inhibition @ 10 uM” value is -5.48%.

On to `CCN1CCN(C(=O)c2cn(C3CCCCC3)c(=O)c3c2c2ccccc2n3C)CC1`, for which the “% Inhibition @ 10 uM” value was found to be 0.163%. The same measure for `c1ccc(C(OCCN2CCNCC2)c2ccccc2)cc1`: 1.4%. The same measure for `Cc1ccccc1C(=O)NC1(C(F)(F)F)C(=O)Nc2c1c(=O)[nH]c(=O)n2CCc1ccccc1` (stereo not shown): -2.98%; for `O=C(CN(C1CCCCC1)S(=O)(=O)c1ccc(F)cc1)N1CCCCCC1`: 1.92%.

Take `Nc1nnnn1/N=C\c1ccc(O)cc1`: the “% Inhibition @ 10 uM” value turned out to be 15.8%. The same measure for `COCCCNC(=O)/C(=C\c1ccco1)NC(=O)c1ccc(C)cc1`: -5.6%; for `CN1CCN(C(=O)C(=O)c2c[nH]c3ccccc23)CC1`: 2.08%; for `CC(=O)Nc1cccc(NC(=O)c2ccccc2Br)c1`: -5.65%. As to `O=C(O)CNC(=O)/C(=C/c1ccco1)NC(=O)c1ccccc1`, the “% Inhibition @ 10 uM” value is 0.76%. As to `Cc1ccc(C(=O)NCc2ccco2)cc1C`, the “% Inhibition @ 10 uM” value is listed as 18.5%. Turning to `CCCSC1=C(C#N)C(c2ccccc2)CC(=O)N1` (stereo not shown), the “% Inhibition @ 10 uM” value is recorded as -1.32%.

On to `COc1ccc2c(c1)c(C(=O)N1CCN(c3ccccc3)CC1)c(C)n2C`, for which the “% Inhibition @ 10 uM” value was -1.11%. Under `COc1ccc(CCNC(=O)C23CCC(C)(C(=O)C2=O)C3(C)C)cc1OC` (stereo not shown) stands -2.84%; under `CC(C)CS(=O)(=O)C1=NSC2=NC(=O)/C(=C\c3ccc4c(c3)OCO4)C(=N)N21`, 8.07%; under `COc1ccc(C2C3=C(O)CC(C)(C)CC3=Nc3nc(O)nc(O)c32)cc1OC` (stereo not shown), -3.9%. The same measure for `CC(C)CC(NC(=O)OCc1ccccc1)C(=O)NCC(=O)COc1ccccc1` (stereo not shown): -0.778%. Under `Cc1nc2ccc(S(=O)(=O)NCC(=O)NCc3ccc4c(c3)OCO4)cc2s1` stands -4.24%; under `CC1=C(CCN2CCC(C(N)=O)CC2)C(C)(C)CCC1`, -1.41%. `CCCCNCc1c(C(=O)O)c(C)n(Cc2ccc(F)cc2)c1C`: the “% Inhibition @ 10 uM” value is listed as -3.67%.

Turning to `COc1ccc(S(=O)(=O)c2c(O)nc3cc(C(=O)NCc4ccccc4Cl)ccc3c2O)cc1`, the “% Inhibition @ 10 uM” value came to 6.05%. Take `CCc1ccc(NC(=O)c2cc3nc(C(F)F)cc(C(F)F)n3n2)cc1`: the “% Inhibition @ 10 uM” value is listed as -3.26%. `COCCCNC(=O)CCc1nc2cccnc2n1Cc1ccc(OC)cc1`: the “% Inhibition @ 10 uM” value was -1.08%. Under `CCN1CCN(Cc2cc([N+](=O)[O-])ccc2Cl)CC1` stands 3.25%; under `CCCCC1CCC(C(=O)N(Cc2cc(OC)c(OC)c(OC)c2)C2CCS(=O)(=O)C2)CC1` (stereo not shown), 1.9%; under `COc1ccc(NC(=O)CCCOc2ccc(Cl)cc2C)c(OC)c1`, -2.22%.

Take `CC(C)CSc1nc2c(c(=O)[nH]c(=O)n2C)n1CCc1ccccc1`: the “% Inhibition @ 10 uM” value is given as 4.7%. Take `COc1ccc(-n2nc3c(c2NC(=O)c2ccccc2C(F)(F)F)CS(=O)(=O)C3)cc1`: the “% Inhibition @ 10 uM” value is 2.65%.

Turning to `CCOC(=O)c1c(NC(=O)c2sc3nc(C)cc(COC)c3c2N)sc2c1CCCC2`, the “% Inhibition @ 10 uM” value came out at 1.72%. Under `CCCCCn1c(CN2CCN(Cc3ccccc3)CC2)nc2c1c(=O)[nH]c(=O)n2C` stands 43.2%. The same measure for `COC(=O)c1sccc1NC(=O)C1CCCN(c2ncnc3onc(C)c23)C1` (stereo not shown): -2.07%; for `COc1ccccc1NC(=O)c1ccc(S(=O)(=O)N2CCCCC2C)cc1` (stereo not shown): -3.83%; for `O=C(NC1CCCCC1)c1ccc(CNS(=O)(=O)c2ccc(Br)cc2)cc1`: -7.16%. Under `COc1ccc(OC)c(C2C(C#N)=C(N)N(c3nc[nH]n3)C3=C2C(=O)CCC3)c1` (stereo not shown) stands 0.343%; under `CC(C)C(=O)Nc1ccc(C(=O)Nc2cc(C(F)(F)F)ccc2Cl)cc1`, -3.26%; under `Cc1ccc(N(CC(=O)N2CCc3ccccc3C2)S(=O)(=O)c2ccccc2)cc1`, -0.173%. Take `CC(C)CCN1C(=O)c2ccc(C(=O)NCc3ccco3)cc2C1=O`: the “% Inhibition @ 10 uM” value is on record as -1.82%.

(Values after PMC6919601, “Identification of Plasmodium dipeptidyl aminopeptidase allosteric inhibitors by high throughput screening” (PLoS ONE, 2019).)
